Data from paper PMC7819943, “Rice protein-binding microarrays: a tool to detect cis-acting elements near promoter regions in rice”.
The list shows a part of the results.

target: T1, OsWOX13 (Oryza sativa, UniProt Q5QMM3 1-267); test: protein-binding microarray (RPBM); PBS, 2% BSA, 51.3 ng/ul salmon testes DNA, 50 uM zinc acetate, 200 nM TF, 25 C, 1 h; high values mean tight binding; conditions: protein: recombinant; tags: N-terminal polyhistidine and DsRed monomer fusion (pET32a); label: CyDye5-dUTP incorporated in the synthesized complementary strand; 3' TTTTT single-stranded linker to array surface; dsDNA, one strand shown
T1 sequence: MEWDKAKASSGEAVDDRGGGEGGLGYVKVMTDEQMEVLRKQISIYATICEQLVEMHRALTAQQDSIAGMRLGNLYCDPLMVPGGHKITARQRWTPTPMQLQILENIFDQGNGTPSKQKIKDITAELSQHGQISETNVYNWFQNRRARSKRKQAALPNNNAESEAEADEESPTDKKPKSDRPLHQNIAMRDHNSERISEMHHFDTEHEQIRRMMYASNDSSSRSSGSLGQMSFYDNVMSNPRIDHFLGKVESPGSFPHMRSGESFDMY
In short: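 An Axon 4000B scanner gave the binding signal as per-feature fluorescence intensity in arbitrary units. This followed washing of a custom Agilent array that had been incubated for 1 h at 25 °C with 200 nM protein in PBS, 2% BSA, salmon testes DNA and 50 µM zinc acetate. The proteins were transcription factors fused at the N-terminus to polyhistidine and DsRed, expressed in E. coli BL21-CodonPlus and purified on Ni–NTA.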

**Q.** Which binding signal does the source give for “GTTTGATTGTCCTAAAATTTCAACTAACACTGTATCATTCCGGAGTCACCTAGTGCAG” here?
**A.** Its binding signal is 34500 fluorescence intensity (a.u.).

**Q.** Which binding signal does the source give for “TTGTGATTTCCTTAATATAGAATAGAACCCTGCTCATATACGGAGTCACCTAGTGCAG” here?
**A.** Its binding signal is 11500 fluorescence intensity (a.u.).

**Q.** “CCAATCTAAATTAAATTGTGACCATTTAACTCACCATGTTCGGAGTCACCTAGTGCAG” was tested. Which binding signal did it give?
**A.** The binding signal was 35500 fluorescence intensity (a.u.).

**Q.** How did the binding signal turn out when “TTGGATAATTGTCTAACCTAAAAGTGGCAAATAGTTAAATCGGAGTCACCTAGTGCAG” was run?
**A.** Its binding signal is 9260 fluorescence intensity (a.u.).

**Q.** Which binding signal does the source give for “AAGCAATGATTGGATTTCACGTGGCCTGCCTGCGGAGTAGCGGAGTCACCTAGTGCAG” here?
**A.** The binding signal was 43300 fluorescence intensity (a.u.).

**Q.** For “ACCCAGAGCAATTTAAAATCTAATTGCATTCCTATCTTCACGGAGTCACCTAGTGCAG”, which binding signal is on record?
**A.** Its binding signal is 9940 fluorescence intensity (a.u.).

**Q.** For “TTAGATAGGAAAACTTATGACTGCATTTAAAATGGGATGGCGGAGTCACCTAGTGCAG”, which binding signal is on record?
**A.** Its binding signal is 10500 fluorescence intensity (a.u.).

**Q.** “ATAACAAAATTAATGAGAGAAGAGAAGAGTTAATCCAGTGCGGAGTCACCTAGTGCAG” was tested. Which binding signal did it give?
**A.** Its binding signal is 7620 fluorescence intensity (a.u.).

**Q.** Which binding signal does the source give for “CCCAAGTCAATCAAATACTGAATCCTTTGCACTGATCATTCGGAGTCACCTAGTGCAG” here?
**A.** The binding signal was 18300 fluorescence intensity (a.u.).

**Q.** Which binding signal does the source give for “AACTCTAATTTACTGTTGGTTGGTGCAATATCAGATGGATCGGAGTCACCTAGTGCAG” here?
**A.** The binding signal was 10300 fluorescence intensity (a.u.).

**Q.** How did the binding signal turn out when “GAATTAGCTTGATTGACAGAAACAAATGGCTACAACTACACGGAGTCACCTAGTGCAG” was run?
**A.** Its binding signal is 50600 fluorescence intensity (a.u.).

**Q.** How did the binding signal turn out when “TCAACATTAACTGATTACCATTAATTAATAATTTATGATCCGGAGTCACCTAGTGCAG” was run?
**A.** The binding signal was 39600 fluorescence intensity (a.u.).

**Q.** With “CAAATTAAGCGAATAATTTATTTATCAATAGAACTTCAATCGGAGTCACCTAGTGCAG” as the sequence, how does the binding signal read?
**A.** Its binding signal is 5950 fluorescence intensity (a.u.).

**Q.** “CAAGATTTATTGTCCTCCAACTGAACTTGGTGGGTGTGGTCGGAGTCACCTAGTGCAG” was tested. Which binding signal did it give?
**A.** The binding signal was 6920 fluorescence intensity (a.u.).

**Q.** With “CACTAATGGCTGACAATTACTACTTCTGACCACTCATACTCGGAGTCACCTAGTGCAG” as the sequence, how does the binding signal read?
**A.** Its binding signal is 11700 fluorescence intensity (a.u.).

**Q.** “TTTAGGGTTAATTGGACCCATGTCATTACAAATTTGCCATCGGAGTCACCTAGTGCAG” was tested. Which binding signal did it give?
**A.** The binding signal was 19800 fluorescence intensity (a.u.).

**Q.** “GGCGGTTTAATTGTTCGTTAGGAGCCGAATTACGGCATAGCGGAGTCACCTAGTGCAG” was tested. Which binding signal did it give?
**A.** Its binding signal is 4100 fluorescence intensity (a.u.).

**Q.** How did the binding signal turn out when “AACTAATCTCTGACTTATAATTTCTCATATACTATAAGGTCGGAGTCACCTAGTGCAG” was run?
**A.** The binding signal was 10100 fluorescence intensity (a.u.).

**Q.** How did the binding signal turn out when “ATCGAATAAATTATAATGGTCCATGTGGTCTATATATTTTCGGAGTCACCTAGTGCAG” was run?
**A.** The binding signal was 5830 fluorescence intensity (a.u.).

**Q.** Which binding signal does the source give for “GATGGTCTATTAGTCCGTGATTAATTAAGTATTAGCTATTCGGAGTCACCTAGTGCAG” here?
**A.** Its binding signal is 8910 fluorescence intensity (a.u.).

**Q.** “AAAATTGTAACTGTGCCATTATAATTTTACAAAATTTGAGCGGAGTCACCTAGTGCAG” was tested. Which binding signal did it give?
**A.** The binding signal was 7630 fluorescence intensity (a.u.).

**Q.** Which binding signal does the source give for “TAGGGATTTAAATTGGTCCTGTTTAAATAGTTTGAGGTACCGGAGTCACCTAGTGCAG” here?
**A.** Its binding signal is 13100 fluorescence intensity (a.u.).

**Q.** “TCTCGCCCAATTGGCAATCACAGGTTCAATTCGCAGCCAACGGAGTCACCTAGTGCAG” was tested. Which binding signal did it give?
**A.** The binding signal was 39000 fluorescence intensity (a.u.).

**Q.** For “ATCTAATTTGTATATAAATTGAATAAATTTGATCACGTGACGGAGTCACCTAGTGCAG”, which binding signal is on record?
**A.** The binding signal was 16100 fluorescence intensity (a.u.).

**Q.** With “TGAATTTGATTAAAACCTAATTGTTTAAAATATTAAGTCACGGAGTCACCTAGTGCAG” as the sequence, how does the binding signal read?
**A.** The binding signal was 16900 fluorescence intensity (a.u.).

**Q.** For “CATTGACTAGTATAAATTTGAACTAGCCAACATCATATAACGGAGTCACCTAGTGCAG”, which binding signal is on record?
**A.** The binding signal was 6640 fluorescence intensity (a.u.).

**Q.** Which binding signal does the source give for “AACAACTGTACTAATTGGGCTGCTGTCCTGACTGACTCAGCGGAGTCACCTAGTGCAG” here?
**A.** The binding signal was 5980 fluorescence intensity (a.u.).

**Q.** “GGATGATCAAAATTAGACACAGAAACTCATGACTGCACTTCGGAGTCACCTAGTGCAG” was tested. Which binding signal did it give?
**A.** Its binding signal is 15700 fluorescence intensity (a.u.).

**Q.** “CAGTGACAGCGAGGAAATTATAGTTGCCTGGTCAAGTAAACGGAGTCACCTAGTGCAG” was tested. Which binding signal did it give?
**A.** The binding signal was 6230 fluorescence intensity (a.u.).

**Q.** How did the binding signal turn out when “CTTCTAATTAGAGACTTGGTGTGTCACATAGTCGTCAGGTCGGAGTCACCTAGTGCAG” was run?
**A.** The binding signal was 19200 fluorescence intensity (a.u.).

**Q.** For “TTACTTTGATCAAAATCAAATTGTTTTAAATTTGACAAAGCGGAGTCACCTAGTGCAG”, which binding signal is on record?
**A.** Its binding signal is 6720 fluorescence intensity (a.u.).

**Q.** How did the binding signal turn out when “CAGATGTGACTGGTATATATTGAAAGGTGCGAGGCACTGGCGGAGTCACCTAGTGCAG” was run?
**A.** Its binding signal is 9620 fluorescence intensity (a.u.).

**Q.** With “ACGTCCAAATCACATTATATCAGTTCCTGTTTGTAACCGCCGGAGTCACCTAGTGCAG” as the sequence, how does the binding signal read?
**A.** Its binding signal is 3210 fluorescence intensity (a.u.).

**Q.** With “TGGAATTGGATACTTTCATCTGGATTTCCTGGATGTGTGGCGGAGTCACCTAGTGCAG” as the sequence, how does the binding signal read?
**A.** Its binding signal is 4120 fluorescence intensity (a.u.).

**Q.** For “CCTCCTCCTCCCCTTGATTGCTAGGTCGGTCTCTAGGCGGCGGAGTCACCTAGTGCAG”, which binding signal is on record?
**A.** Its binding signal is 6900 fluorescence intensity (a.u.).

**Q.** For “GTTTGATGTGTGGAATATGTGATGGACTATCTGAGGACTACGGAGTCACCTAGTGCAG”, which binding signal is on record?
**A.** Its binding signal is 3990 fluorescence intensity (a.u.).

**Q.** Which binding signal does the source give for “GGTAACAATCATGATAGAATGGATTGAAAAGATTTAGCCACGGAGTCACCTAGTGCAG” here?
**A.** Its binding signal is 33400 fluorescence intensity (a.u.).

**Q.** For “GATCTAAAGGTGATTGAGAGGCATGTGGCACGTCCACGTCCGGAGTCACCTAGTGCAG”, which binding signal is on record?
**A.** Its binding signal is 29700 fluorescence intensity (a.u.).

**Q.** How did the binding signal turn out when “TAAATTTTGATTGGGTTTGATTAAATTAATTTATAGAAAACGGAGTCACCTAGTGCAG” was run?
**A.** Its binding signal is 33100 fluorescence intensity (a.u.).

**Q.** Which binding signal does the source give for “AATAATAAATTAATCCCGCGGGTGTCCAGCAACTAATTACCGGAGTCACCTAGTGCAG” here?
**A.** The binding signal was 7110 fluorescence intensity (a.u.).

**Q.** For “CAAAATTCAATTATTTTACTCTTTATAAATCATTCGAATACGGAGTCACCTAGTGCAG”, which binding signal is on record?
**A.** The binding signal was 7190 fluorescence intensity (a.u.).

**Q.** “GCCTATGATTTGGTTATACTTCAGTTCAGAGTGTCTCGATCGGAGTCACCTAGTGCAG” was tested. Which binding signal did it give?
**A.** The binding signal was 9200 fluorescence intensity (a.u.).

**Q.** How did the binding signal turn out when “AATTAATCAACAAATAATAGTCTTGTAGTAGGAATAAGTACGGAGTCACCTAGTGCAG” was run?
**A.** Its binding signal is 5320 fluorescence intensity (a.u.).

**Q.** How did the binding signal turn out when “TTAAATTTATTCCTGCCTCAATAAACTACGTATGGTTTCACGGAGTCACCTAGTGCAG” was run?
**A.** The binding signal was 7810 fluorescence intensity (a.u.).

**Q.** Which binding signal does the source give for “GACATACCTTGAGATTGACGAAGTCATCACGAACGTCTCACGGAGTCACCTAGTGCAG” here?
**A.** Its binding signal is 5850 fluorescence intensity (a.u.).

**Q.** With “ATAAACTGCAGTAAATAACTGTTCAAAGAAATGAATAATACGGAGTCACCTAGTGCAG” as the sequence, how does the binding signal read?
**A.** The binding signal was 5620 fluorescence intensity (a.u.).

**Q.** “AATAATAGAATAACTTACATTGTGAATTACTAGTAGTACGCGGAGTCACCTAGTGCAG” was tested. Which binding signal did it give?
**A.** Its binding signal is 7490 fluorescence intensity (a.u.).

**Q.** With “GCCAATAGTGATTGAGACAGACTGCTTGGCGATGATCCATCGGAGTCACCTAGTGCAG” as the sequence, how does the binding signal read?
**A.** The binding signal was 42600 fluorescence intensity (a.u.).

**Q.** For “CTAAAATATCTGTAATTACGGAACCGAAGGAAGTAGAGACCGGAGTCACCTAGTGCAG”, which binding signal is on record?
**A.** The binding signal was 15600 fluorescence intensity (a.u.).

**Q.** “ATAATTGATAATGAAGACCAAGGAAATGCTTCTTTGGTCCCGGAGTCACCTAGTGCAG” was tested. Which binding signal did it give?
**A.** Its binding signal is 54300 fluorescence intensity (a.u.).

**Q.** “CGATCCGAGATTAATTGTGCTCATACTGTTCGACGAATTGCGGAGTCACCTAGTGCAG” was tested. Which binding signal did it give?
**A.** The binding signal was 5200 fluorescence intensity (a.u.).

**Q.** Which binding signal does the source give for “GTTCTAAATTATTGGAGCGGAGGGAGAATGTTATTTAACACGGAGTCACCTAGTGCAG” here?
**A.** The binding signal was 7640 fluorescence intensity (a.u.).

**Q.** “TTACACCTTAATTAAACCTGATGTTCACCACACAAAAGTTCGGAGTCACCTAGTGCAG” was tested. Which binding signal did it give?
**A.** Its binding signal is 5790 fluorescence intensity (a.u.).

**Q.** How did the binding signal turn out when “GTTAATTTAGAGCGTCACGGGCTAGTTCCGTTCGGGGCTACGGAGTCACCTAGTGCAG” was run?
**A.** The binding signal was 14300 fluorescence intensity (a.u.).
